# In patent US20210155673A1 (SANABIO, published 2021):
# Target: IFNβ (UniProt P01574 22-187)
# Assay: cell-based or functional assay
# Chain of IFNβ (P01574 22-187 limits assumed): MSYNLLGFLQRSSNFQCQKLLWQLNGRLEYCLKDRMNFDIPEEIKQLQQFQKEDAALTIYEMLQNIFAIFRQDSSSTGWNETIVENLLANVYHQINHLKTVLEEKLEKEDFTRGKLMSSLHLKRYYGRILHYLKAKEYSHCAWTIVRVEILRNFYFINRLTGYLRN
binder,measurement,value
RSLV 601-604 soluble interferon receptor (heterodimer of RSLV-601 and RSLV-604) (Fc fusion) chain 1: KNLKSPQKVEVDIIDDNFILRWNRSDESVGNVTFSFDYQKTGMDNWIKLSGCQNITSTKCNFSSLKLNVYEEIKLRIRAEKENTSSWYEVDSFTPFRKAQIGPPEVHLEAEDKAIVIHISPGTKDSVMWALDGLSFTYSLVIWKNSSGVEERIENIYSRHKIYKLSPETTYCLKVKAALLTSWKIGVYSPVHCIKTTVENELPPPENIEVSVQNQNYVLKWDYTYANMTFQVQWLHAFLKRNPGNHLYKWKQIPDCENVKTTQCVFPQNVFQKGIYLLRVQASDGNNTSFWSEEIKFDTEIQAFLLPPVFNIRSLSDSFHIYIGAPKQSGNTPVIQDYPLIYEIIFWENTSNAERKIIEKKTDVTVPNLKPLTVYCVKARAHTMDEKLNKSSVFSDAVCEKTKPGNTSKGGGGSGGGGSGGGGSGGGGS[here human IgG1 Fc with C220S P238S P331S T350V T366L K392L T394W (EU numbers) without letters] chain 2: ISYDSPDYTDESCTFKISLRNFRSILSWELKNHSIVPTHYTLLYTIMSKPEDLKVVKNCANTTRSFCDLTDEWRSTHEAYVTVLEGFSGNTTLFSCSHNFWLAIDMSFEPPEFEIVGFTNHINVMVKFPSIVEEELQFDLSLVIEEQSEGIVKKHKPEIKGNMSGNFTYIIDKLIPNTNYCVSVYLEHSDEQAVIKSPLKCTLLPPGQESESAESAKGGGGSGGGGSGGGGSGGGGSEPKSSDKTHTCPPCPAPELLGGSSVFLFPPKPKDTLMISRTPEVTCVVVDVSHEDPEVKFNWYVDGVEVHNAKTKPREEQYNSTYRVVSVLTVLHQDWLNGKEYKCKVSNKALPASIEKTISKAKGQPREPQVYVYPPSRDELTKNQVSLTCLVKGFYPSDIAVEWESNGQPENNYKTTPPVLDSDGSFALVSKLTVDKSRWQQGNVFSCSVMHEALHNHYTQKSLSLSPGK,"IC50, inhibition of IFNβ induced SEAP production in HEK-Blue α/β cells",0.02 nM
